The record followed here is the antibiotic and cytotoxicity screens of Wong et al. (2023).

One experiment has as its system HSkMC. As to the kind of experiment: cytotoxicity call (relative viability < 0.9). The conditions noted are these: 10 µM.
The next experiment has as its system HepG2. As to the kind of experiment: cytotoxicity call (relative viability < 0.9). The note with it: 10 µM.
The subject of another experiment is S. aureus RN4220. As to the kind of experiment: growth inhibition call (relative growth <= 0.2). The note with it: 50 µM.

This is one part of the list.

`C[C@H](CO)N1C[C@H](C)[C@H](CN(C)C(=O)Nc2ccc(F)cc2)OCCCC[C@H](C)Oc2ccc(NS(=O)(=O)c3ccc(F)cc3)cc2C1=O`: the cytotoxicity call with HSkMC and in the experiment with HepG2 was “inactive” throughout. Further, the growth inhibition call with S. aureus RN4220 is “inactive”.

Turning to `CC(=O)NC[C@H]1CN(c2ccc(N3CCN(C(=O)CO)CC3)c(F)c2)C(=O)O1`, the cytotoxicity call in the experiment with HSkMC and in the experiment with HepG2 was “inactive” each time. For the same compound, the growth inhibition call in the experiment on S. aureus RN4220 was “active”.

In the case of `COCC(=O)N1CC(=O)N2[C@@H](CO)[C@H](c3ccc(C#Cc4cccnc4)cc3)[C@@H]2C1`, the cytotoxicity call in the experiment with HSkMC and with HepG2 was “inactive” in each case. In addition, in the experiment on S. aureus RN4220, the growth inhibition call was “inactive”.

As to `C[C@H](CO)N1C[C@H](C)[C@@H](CN(C)CC2CCCCC2)Oc2c(NC(=O)CCCCCC(=O)Nc3ccccc3N)cccc2C1=O`, the cytotoxicity call in the experiment on HSkMC and in the experiment with HepG2 was “inactive” each time. The growth inhibition call in the experiment with S. aureus RN4220 is “inactive”.

For the compound `C[C@@H]1CN([C@@H](C)CO)S(=O)(=O)c2ccc(C#Cc3ccccc3F)cc2O[C@@H]1CN(C)C(=O)c1ccc2c(c1)OCO2`, the cytotoxicity call in the experiment on HSkMC is “inactive”. Also, the cytotoxicity call in the experiment on HepG2 was “active”. In addition, the growth inhibition call with S. aureus RN4220 is “inactive”.

For `C[C@@H]1CN([C@H](C)CO)S(=O)(=O)c2ccc(Br)cc2O[C@@H]1CN(C)C(=O)c1cnccn1`, the cytotoxicity call with HSkMC and in the experiment with HepG2 was “inactive” in each case. In the experiment on S. aureus RN4220, the growth inhibition call is “inactive”.

On to `C[C@H](CO)N1C[C@H](C)[C@@H](CN(C)Cc2ccc(Cl)c(Cl)c2)OCCCC[C@H](C)Oc2ccc(NC(=O)CCC(F)(F)F)cc2C1=O`, for which the cytotoxicity call in the experiment with HSkMC and with HepG2 was “inactive” throughout. Moreover, the growth inhibition call with S. aureus RN4220 is “inactive”.

As to `C[C@@H]1CN([C@H](C)CO)C(=O)c2cc(NC(=O)Nc3ccc(C(F)(F)F)cc3)ccc2O[C@@H](C)CCCCO[C@H]1CN(C)C(=O)C1CCCCC1`, the cytotoxicity call in the experiment on HSkMC and in the experiment with HepG2 was “inactive” each time. Besides, the growth inhibition call in the experiment with S. aureus RN4220 was “inactive”.

For `C[C@@H]1CCCCO[C@H](CN(C)Cc2ccncc2)[C@@H](C)CN([C@H](C)CO)C(=O)c2cc(NC(=O)Nc3ccc(C(F)(F)F)cc3)ccc2O1`, the cytotoxicity call in the experiment on HSkMC and in the experiment with HepG2 was “inactive” each time. The growth inhibition call in the experiment with S. aureus RN4220 is “inactive”.

For `C[C@H]1CN([C@@H](C)CO)C(=O)c2cc(NC(=O)Nc3ccc(C(F)(F)F)cc3)ccc2O[C@H]1CN(C)Cc1ccc(Cl)c(Cl)c1`, the cytotoxicity call in the experiment with HSkMC and with HepG2 was “active” throughout. The growth inhibition call with S. aureus RN4220 is “inactive”.

Regarding `C[C@@H]1CN([C@@H](C)CO)C(=O)c2cccc(NS(=O)(=O)c3ccc(F)cc3)c2O[C@@H]1CN(C)Cc1ccc(Cl)c(Cl)c1`, the cytotoxicity call in the experiment on HSkMC and in the experiment on HepG2 was “inactive” throughout. Also, in the experiment with S. aureus RN4220, the growth inhibition call was “inactive”.

As for `CC(C)NC(=O)[C@@]1(C)c2ccccc2C(=O)N(Cc2cc(C(F)(F)F)cc(C(F)(F)F)c2)[C@H]1c1ccc(CO)cc1`, the cytotoxicity call in the experiment with HSkMC and in the experiment on HepG2 was “inactive” throughout. In addition, the growth inhibition call with S. aureus RN4220 is “inactive”.

For `Nc1cnc2ccc(Cl)nn12`, the cytotoxicity call in the experiment with HSkMC and in the experiment with HepG2 was “inactive” in each case. Further, the growth inhibition call with S. aureus RN4220 is “inactive”.

In the case of `Cc1noc(C)c1S(=O)(=O)Nc1ccc2c(c1)C(=O)N([C@@H](C)CO)C[C@@H](C)[C@@H](CN(C)C(=O)Nc1cccc3ccccc13)OCCCC[C@H](C)O2`, the cytotoxicity call in the experiment with HSkMC and in the experiment on HepG2 was “inactive” throughout. Also, the growth inhibition call in the experiment on S. aureus RN4220 was “inactive”.

On to `Cc1ccc(S(=O)(=O)Nc2ccc3c(c2)C(=O)N([C@@H](C)CO)C[C@@H](C)[C@@H](CN(C)S(=O)(=O)c2cccs2)O3)cc1`, for which the cytotoxicity call in the experiment with HSkMC and with HepG2 was “inactive” in each case. Moreover, the growth inhibition call in the experiment with S. aureus RN4220 was “inactive”.

`Cc1noc(C)c1NC(=O)N(C)C[C@@H]1Oc2c(NS(C)(=O)=O)cccc2C(=O)N([C@@H](C)CO)C[C@@H]1C`: the cytotoxicity call in the experiment on HSkMC and in the experiment with HepG2 was “inactive” in each case. Also, in the experiment with S. aureus RN4220, the growth inhibition call is “inactive”.

For the compound `Cc1cc(C(=O)Nc2cccc3c2O[C@@H](CN(C)Cc2ccccc2)[C@H](C)CN([C@H](C)CO)C3=O)n(C)n1`, the cytotoxicity call in the experiment on HSkMC and in the experiment on HepG2 was “inactive” throughout. For the same compound, in the experiment with S. aureus RN4220, the growth inhibition call was “inactive”.

`Cl.O=C1CC2(CCCC2)CC(=O)N1CCCCN1CCN(c2ncccn2)CC1`: the cytotoxicity call in the experiment with HSkMC is “inactive”. The cytotoxicity call with HepG2 was “active”. Moreover, the growth inhibition call with S. aureus RN4220 is “inactive”.

In the case of `CCS(=O)(=O)N1C[C@]2(C1)CN([C@H](CO)c1c2c2ccc(cc2n1C)OC)C(=O)CN1CCOCC1`, the cytotoxicity call in the experiment on HSkMC and in the experiment with HepG2 was “inactive” each time. Moreover, in the experiment with S. aureus RN4220, the growth inhibition call is “inactive”.

For the compound `CN(C)CCC=C1c2ccccc2CCc2ccccc21.Cl`, the cytotoxicity call with HSkMC was “inactive”. Besides, the cytotoxicity call with HepG2 is “active”. Also, the growth inhibition call in the experiment on S. aureus RN4220 was “inactive”.

For `C[C@H]1CN([C@@H](C)CO)S(=O)(=O)c2ccc(C3=CCCCC3)cc2O[C@@H]1CN(C)Cc1cncnc1`, the cytotoxicity call in the experiment on HSkMC (human skeletal muscle cells) and with HepG2 was “inactive” each time. Further, the growth inhibition call with S. aureus RN4220 was “inactive”.

Consider `C[C@H]1CCCCO[C@H](CN(C)C(=O)CCC(F)(F)F)[C@@H](C)CN([C@@H](C)CO)C(=O)c2cc(NC(=O)Cc3ccccc3)ccc2O1`, for which the cytotoxicity call in the experiment with HSkMC was “inactive”. The cytotoxicity call in the experiment on HepG2 was “active”. Also, in the experiment with S. aureus RN4220, the growth inhibition call is “inactive”.

Consider `C[C@@H]1CN([C@H](C)CO)C(=O)CCCn2cc(nn2)CO[C@H]1CN(C)C(=O)Nc1ccc(N2CCCCC2)cc1`, for which the cytotoxicity call with HSkMC and in the experiment with HepG2 was “inactive” in each case. For the same compound, the growth inhibition call in the experiment with S. aureus RN4220 is “inactive”.

With `C[C@@H]1CN([C@@H](C)CO)C(=O)Cc2cc(NS(C)(=O)=O)ccc2O[C@@H]1CN(C)S(C)(=O)=O`, the cytotoxicity call in the experiment with HSkMC and in the experiment with HepG2 was “inactive” throughout. The growth inhibition call in the experiment with S. aureus RN4220 was “inactive”.

`C[C@H](CO)N1C[C@H](C)[C@@H](CN(C)C(=O)Nc2ccccc2)OCCCC[C@H](C)Oc2ccc(NC(=O)CCC(F)(F)F)cc2C1=O`: the cytotoxicity call in the experiment with HSkMC and in the experiment on HepG2 was “inactive” throughout. Further, the growth inhibition call in the experiment with S. aureus RN4220 is “inactive”.

With `C[C@@H]1CN([C@H](C)CO)C(=O)c2cc(NC(=O)Cn3cnnn3)ccc2O[C@@H]1CN(C)S(=O)(=O)c1cccs1`, the cytotoxicity call in the experiment with HSkMC and with HepG2 was “inactive” in each case. In the experiment with S. aureus RN4220, the growth inhibition call is “inactive”.
